Experimental data: patent US20260226189A1 (PHILOGEN S P A, published 2026)

B1: anti-CD28 (AE2P)-anti-CEA (PEA2) bispecific antibody in (2+2) IgG4-(scFv)2 format (bispecific antibody)
heavy: [about 100 residues omitted here]RYIAFDYWGQGTLVTVSSASTKGPSVFPLAPCSRSTSESTAALGCLVKDYFPEPVTVSWNSGALTSGVHTFPAVLQSSGLYSLSSVVTVPSSSLGTKTYTCNVDHKPSNTKVDKRV[human IgG4 Fc with S228P (EU numbers) omitted here]
light: DIQMTQSPSSLSASVGDRVTITCRASQSISSYLNWYQQKPGKAPKLLIYAASSLQSGVPSRFSGSGSGTDFTLTISSLQPEDFATYYCQQGGMPPDTFGQGTKVEIKRTVAAPSVFIFPPSDEQLKSGTASVVCLLNNFYPREAKVQWKVDNALQSGNSQESVTEQDSKDSTYSLSSTLTLSKADYEKHKVYACEVTHQGLSSPVTKSFNRGECGGGGSGGGGSGGGGSEIVLTQSPGTLSLSPGERATLSCRASQSVSQNHLAWYQQKPGQAPRLLIYLASRRHTGIPDRFSGSGSGTDFTLTISRLEPEDFAVYYCQQSGRVPWTFGQGTKVEIKGGGGSGGGGSGGGGSEVQLLESGGGLVQPGGSLRLSCAASGFTFSRTAMSWVRQAPGKGLEWVSAIDYDGGVTYYADSVKGRFTISRDNSKNTLYLQMNSLRAEDTAVYYCAKLTYARFDYWGQGTLVTVSS
notes: also called IgG4 AE2P-(scFvPEA2)2; anti-CD28 IgG4 (AE2P)-anti-CEA (scFv)2 (PEA2)
B2: anti-CD28 (AE2P)-anti-CEA (Sm3E) bispecific antibody in (2+2) IgG4-(scFv)2 format (bispecific antibody)
heavy: [about 100 residues omitted here]RYIAFDYWGQGTLVTVSSASTKGPSVFPLAPCSRSTSESTAALGCLVKDYFPEPVTVSWNSGALTSGVHTFPAVLQSSGLYSLSSVVTVPSSSLGTKTYTCNVDHKPSNTKVDKRV[human IgG4 Fc with S228P (EU numbers) omitted here]
light: DIQMTQSPSSLSASVGDRVTITCRASQSISSYLNWYQQKPGKAPKLLIYAASSLQSGVPSRFSGSGSGTDFTLTISSLQPEDFATYYCQQGGMPPDTFGQGTKVEIKRTVAAPSVFIFPPSDEQLKSGTASVVCLLNNFYPREAKVQWKVDNALQSGNSQESVTEQDSKDSTYSLSSTLTLSKADYEKHKVYACEVTHQGLSSPVTKSFNRGECGGGGSGGGGSGGGGSQVKLEQSGAEVVKPGASVKLSCKASGFNIKDSYMHWLRQGPGQRLEWIGWIDPENGDTEYAPKFQGKATFTTDTSANTAYLGLSSLRPEDTAVYYCNEGTPTGPYYFDYWGQGTLVTVSSGGGGSGGGGSGGGGENVLTQSPSSMSVSVGDRVTIACSASSSVPYMHWLQQKPGKSPKLLIYLTSNLASGVPSRFSGSGSGTDYSLTITSVQPEDAATYYCQQRSSYPLTFGGGTKLEIK
notes: also called IgG4 AE2P-(scFvSm3E)2; anti-CD28 IgG4 (AE2P)-anti-CEA (scFv)2 (Sm3E)

Molecular target: T1, CD28 on human T cells (human, UniProt P10747 19-220)
T1 construct: whole, on cells
Test: flow cytometry on human T cells, 50 nM, PE anti-human IgG Fc detection, control is secondary antibody only

Binder	binding result
B1	binds
B2	binds
